From PubChem BioAssay AID1963576 (National Center for Advancing Translational Sciences (NCATS), 2024)
Screen size: about 46,000 compounds; about 60 (0.1%) were called active. Not shown: some 3% with an inconclusive outcome. The call rests on the fitted dose curve; in most records, active means well fitted inhibition curve with a large enough effect; inconclusive means small, poorly fitted or top-dose-only effect; inactive means no such curve, though single readings can be large or run the other way. This is one part of the list.

Assay: Primary qHTS assay for Inhibitors of ovarian cancer metastasis using an organotypic tumor microenvironment (TME) model. Further: nearly all actives have a fitted effect of over 65% in size.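 On activity change, negative = inhibition: plate controls were DMSO wells for no effect and tomatine positive control wells for full effect.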
Details: SKOV3ip1-GFP adhesion/invasion on 3D omental model, fluorescence; series mostly up to 45.8 µM; activity change, negative = inhibition: at the top concentration
In short: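 qHTS, 4-pt dose (0.36-46 umol/L); SKOV3ip1-GFP, 1,200 cells/well, no FBS; primary omental fibroblast/mesothelial co-culture 48 h pre-grown; 2 h RT + 16 h 37 C; PBS wash, 4% PFA; GFP count 488/509 nm.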

Compound	activity change, negative = inhibition	outcome
CC(=O)N1CCCc2cc(S(=O)(=O)N3CCC(C(=O)NCc4ccc(F)cc4)CC3)ccc21	inactive: 3.77%	
CCOC(=O)c1c(C)oc2nc(C)nc(N3CCN(c4ccc(C)cc4C)CC3)c12	inactive: -4.06%	
COc1ccc(C(=O)NCC(c2ccco2)S(=O)(=O)c2ccccc2)cc1 (stereo unspecified)		inactive
Cc1nc(-c2ccc(F)cc2)sc1CCNC(=O)c1ccccc1	inactive: 1.77%	
CCCN(C(=O)C1CCN(S(=O)(=O)c2c(C)noc2/C=C/c2ccc(C)cc2)CC1)c1ccccc1F	inactive: -0.134%	
CCN1CCOC(=O)C1CC(=O)Nc1ccccc1C(F)(F)F (stereo unspecified)		inactive
Cc1cccc(NC(=O)C2CCC(CNS(=O)(=O)c3ccc4c(c3)CCCC(=O)N4)CC2)c1C (stereo unspecified)		inactive
COc1cc(OC)c(NC(=O)COc2ccccc2-c2nnc(-c3ccccc3)o2)cc1Cl	inactive: -0.361%	
COC(=O)c1cc(C)nc2c1c(=O)nc(SCc1cc(C)ccc1C)n2C1CC1	inactive: 8.8%	
CCCN(Cc1cc2cc(C)ccc2[nH]c1=O)C(=O)c1cccc(Cl)c1	inactive: -6.97%	
Cc1cc(C)cc(N(C)S(=O)(=O)c2nnc(NC(=O)COc3ccc(C)c(C)c3)s2)c1		inactive
CCOCCCNC(=O)c1c(NC(=O)Cc2coc3c(C)c(C)ccc23)sc2c1CCC2	inactive: -17.4%	
CC(=O)c1ccc(NC(=O)c2cccc(NC(=O)N3CCSc4ncccc43)c2)cc1		inactive
Cc1cccc(C(=O)NC2(C(F)(F)F)N=C(c3ccccc3)N(Cc3ccccc3)C2=O)c1 (stereo unspecified)	inactive: -21.2%	
Cc1c(Cl)cccc1NC(=O)CN1C(=O)c2ccccc2Sc2ncccc21		inactive
CCc1ccccc1Nc1nn2c(=O)c3ccc(C(=O)NCCc4ccccc4)cc3nc2s1	inactive: 8.96%	
CCn1c(=O)c2cc(C(=O)NCCc3cccc(C)c3)sc2c2ccccc21		inactive
COCCCN1CCc2nc(SCC(=O)Nc3ccc(C)c(Cl)c3)[nH]c(=O)c2C1	inactive: 1.09%	
COc1ccc(-n2c(SCc3nc(-c4ccc(C)cc4)no3)nnc2-c2ccncc2)cc1		inactive
CCOc1ccc2c(c1)c(=O)c(S(=O)(=O)c1ccc(C)cc1)cn2CC(=O)Nc1ccc(C)cc1	inactive: 3.82%	
O=C(CSc1nc2ccccc2n1CC(=O)Nc1ccc(F)cc1F)Nc1ccc(F)cc1	inactive: -7.48%	

Compound	activity change, negative = inhibition	outcome
Cc1ccc(-c2c(CN3CCN(c4cc(Cl)ccc4C)CC3)csc2C)cc1	inactive: 1.53%	
CC(=O)N1CCc2c(sc3c2c(=O)n(-c2ccccc2Cl)c(=O)n3C)C1	inactive: -15.8%	
Cc1nc2sccn2c(=O)c1S(=O)(=O)Nc1ccc(N2CCN(C)CC2)cc1	inactive: 1.98%	
Cn1nnnc1SCCCNCc1cc(Br)ccc1OCc1ccccc1	inactive: -17.4%	
Cc1cc(-c2ccc(S(=O)(=O)Nc3cccc(C)c3C)s2)on1		inactive
CCOC(=O)c1c(C)[nH]c(C)c1S(=O)(=O)N1CCC(C(=O)NCc2ccc(F)cc2)CC1	inactive: 142%	
COc1ccc(-c2c(C#N)c(SCC(=O)Nc3ccc(C)c(C)c3)nc(C)c2C(=O)Nc2ccc(Cl)cc2)cc1		inactive
CCCCSCCCNC(=O)C1CCN(Cc2nc(-c3ccc(CC)cc3)oc2C)CC1		inactive
Cc1cccc(N2CCN(C(=O)c3sc4nc5n(c(=O)c4c3C)CCC5)CC2C)c1 (stereo unspecified)	inactive: -3.07%	
CCOc1ccc(CCNC(=O)C(CC)n2nc(C)c3c(C)n(-c4ccccc4)nc3c2=O)cc1 (stereo unspecified)	inactive: 1.98%	
COc1ccc(-c2nn3c(=O)cc(CN4CCN(C(=O)Nc5cc(C)ccc5C)CC4)nc3s2)cc1	inactive: 0.205%	
COc1cc(OC)c(NC(=O)NCCn2nnc3cc(S(=O)(=O)N(C)C)ccc32)cc1Cl		inactive
O=c1[nH]c(SCc2ccccc2)nc2c1CCCC2	inactive: -3.71%	
COC(=O)c1ccc(OCC2c3cc(OC)c(OC)cc3CCN2C(=O)c2ccc(OC)cc2)cc1 (stereo unspecified)	inactive: 23.5%	
O=C(NC1CCCC1)c1ccc(CSc2nc3cccnc3n2Cc2cccc(F)c2)cc1	inactive: 0.42%	
Cc1nc2ccn(Cc3cccnc3)c(=O)c2cc1C(=O)NCc1ccccc1	inactive: -4.08%	
O=C(CSc1nnc(-c2ccccc2Br)n1-c1ccccc1)c1ccc(F)cc1		inactive
CCCCn1c(=O)c2oc3ccccc3c2n(CC(=O)Nc2cc(C)ccc2C)c1=O	inactive: -0.896%	
Cc1ccc(CNC(=O)Cc2c(C(=O)O)c(C)cn2C)cc1	inactive: -2.1%	
COc1ccc(OC2CCN(S(=O)(=O)c3cccc(F)c3)CC2)cc1		inactive
CCc1ccc(OCC(=O)Nc2ccc(S(=O)(=O)Nc3onc(C)c3C)cc2)cc1	inactive: -23.3%	

Compound	activity change, negative = inhibition	outcome
Cc1ccc2oc(=O)n(CCNC(=O)Nc3ccccc3C)c2c1	inactive: 4.92%	
COc1cc(OC)c(NC(=O)Cc2c(C(=O)O)c(C)cn2C)cc1Cl	inactive: 3.99%	
COc1ccc(NC(=O)C2=C(C)Nc3ncnn3C2c2sccc2C)cc1 (stereo unspecified)	inactive: -12.9%	
COc1ccc(C2C(C(=O)Nc3ccccc3)=C(C)Nc3nc(-c4ccccc4)nn32)c(OC)c1 (stereo unspecified)		inactive
Cc1cccc(NC(=O)Cn2c(=O)n(CCc3ccccc3)c(=O)c3ccccc32)c1	inactive: 25.8%	
Cc1cccc(C(=O)N2CCNC(=O)C2CC(=O)Nc2ccc(F)cc2)c1 (stereo unspecified)		inactive
COc1ccc(C)cc1NC(=O)C(NS(=O)(=O)c1cccs1)c1ccccc1 (stereo unspecified)	inactive: 1.57%	
COc1ccc(C(=O)CSc2nc3cc(C(=O)NC4CCCC4)ccc3c(=O)n2CC2CCCO2)cc1 (stereo unspecified)		inactive
Cc1ccccc1NC(=O)Nc1csc2c1CCCC2	inactive: -1.82%	
CCOc1ccc(CN2C(=O)c3ccccc3Sc3ccc(C(=O)NCc4ccc5c(c4)OCO5)cc32)cc1		inactive
COc1ccc(S(=O)(=O)NCCc2sc(C)nc2C)cc1		inactive
COc1cc(OC)c(NC(=O)c2sc3nc4n(c(=O)c3c2C)CCCC4)cc1Cl	inactive: 13.2%	
CCCOc1cccc(C(=O)Nc2cc(-c3nc4ccccc4[nH]3)ccc2C)c1	inactive: -13.3%	
CCCc1cnc2c(c1SCc1cccc(C)c1)c(=O)n(C)c(=O)n2C	inactive: 7.55%	
CCOc1ccccc1NC(=O)CSc1nc2ccccc2nc1Cc1ccc(C)cc1	inactive: 5.36%	
Cc1ccc2c(Sc3ccccc3)c(C(=O)NCc3ccccc3F)[nH]c2c1	inactive: -11.3%	
Cc1nc2c3cccnc3nn2c(C)c1CCC(=O)NCc1ccccc1Cl	inactive: -9.5%	
Cc1ccc(S(=O)Cc2ccc(C(=O)NCc3ccc(OC(C)C)cc3)o2)cc1 (stereo unspecified)	inactive: -3.01%	
CC(=O)c1ccc(NC(=O)c2sc(-n3nc(C)c(CCC(C)C)c3C)nc2C)cc1	inactive: -9.37%	
